Measurements from PubChem BioAssay AID1347165 (National Center for Advancing Translational Sciences (NCATS), 2019).
Hit rate of the full screen: of about 220,000 compounds, about 5,700 (2.6%) were called active. Inconclusive results, whose numbers are uncertain, are shown with a selection of clear calls. Calls follow the shape of the dose curve; as a rule, active = well fitted inhibition curve with a large enough effect; inconclusive = small, poorly fitted or top-dose-only effect; inactive = no such curve, though single readings can be large or run the other way. A potency beside an inconclusive call is a rough fit, not a confirmed value.

These compounds were tested against Lysine-specific demethylase 5B (Homo sapiens) (UniProt Q9UGL1) (assay: Primary screen for KDM5B Histone Demethylases FDH-coupled qHTS). Conditions: FDH-coupled NADH fluorescence (FDH is formaldehyde dehydrogenase); activity change, negative = inhibition: at 57.7 µM (top of the series) unless noted.
Method in brief: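 Measured: NADH fluorescence change, 30 min, RT. System: KDM5BΔAP 200 nM final, H3K4me3 peptide, α-KG, Fe(II), ascorbate, NAD⁺ plus FDH, pH 7.5 HEPES. Compounds: titrated, 10 min pre-incubation with enzyme.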
Also: nearly all actives have a fitted effect of over 70% in size.
For activity change, negative = inhibition in this document: 0% is about no effect.
Potency is read from the fitted curve at half-maximal effect; tags tell the direction and shape of the fitted curve.

Chain of UniProt Q9UGL1 (Q9UGL1 whole entry, looked up): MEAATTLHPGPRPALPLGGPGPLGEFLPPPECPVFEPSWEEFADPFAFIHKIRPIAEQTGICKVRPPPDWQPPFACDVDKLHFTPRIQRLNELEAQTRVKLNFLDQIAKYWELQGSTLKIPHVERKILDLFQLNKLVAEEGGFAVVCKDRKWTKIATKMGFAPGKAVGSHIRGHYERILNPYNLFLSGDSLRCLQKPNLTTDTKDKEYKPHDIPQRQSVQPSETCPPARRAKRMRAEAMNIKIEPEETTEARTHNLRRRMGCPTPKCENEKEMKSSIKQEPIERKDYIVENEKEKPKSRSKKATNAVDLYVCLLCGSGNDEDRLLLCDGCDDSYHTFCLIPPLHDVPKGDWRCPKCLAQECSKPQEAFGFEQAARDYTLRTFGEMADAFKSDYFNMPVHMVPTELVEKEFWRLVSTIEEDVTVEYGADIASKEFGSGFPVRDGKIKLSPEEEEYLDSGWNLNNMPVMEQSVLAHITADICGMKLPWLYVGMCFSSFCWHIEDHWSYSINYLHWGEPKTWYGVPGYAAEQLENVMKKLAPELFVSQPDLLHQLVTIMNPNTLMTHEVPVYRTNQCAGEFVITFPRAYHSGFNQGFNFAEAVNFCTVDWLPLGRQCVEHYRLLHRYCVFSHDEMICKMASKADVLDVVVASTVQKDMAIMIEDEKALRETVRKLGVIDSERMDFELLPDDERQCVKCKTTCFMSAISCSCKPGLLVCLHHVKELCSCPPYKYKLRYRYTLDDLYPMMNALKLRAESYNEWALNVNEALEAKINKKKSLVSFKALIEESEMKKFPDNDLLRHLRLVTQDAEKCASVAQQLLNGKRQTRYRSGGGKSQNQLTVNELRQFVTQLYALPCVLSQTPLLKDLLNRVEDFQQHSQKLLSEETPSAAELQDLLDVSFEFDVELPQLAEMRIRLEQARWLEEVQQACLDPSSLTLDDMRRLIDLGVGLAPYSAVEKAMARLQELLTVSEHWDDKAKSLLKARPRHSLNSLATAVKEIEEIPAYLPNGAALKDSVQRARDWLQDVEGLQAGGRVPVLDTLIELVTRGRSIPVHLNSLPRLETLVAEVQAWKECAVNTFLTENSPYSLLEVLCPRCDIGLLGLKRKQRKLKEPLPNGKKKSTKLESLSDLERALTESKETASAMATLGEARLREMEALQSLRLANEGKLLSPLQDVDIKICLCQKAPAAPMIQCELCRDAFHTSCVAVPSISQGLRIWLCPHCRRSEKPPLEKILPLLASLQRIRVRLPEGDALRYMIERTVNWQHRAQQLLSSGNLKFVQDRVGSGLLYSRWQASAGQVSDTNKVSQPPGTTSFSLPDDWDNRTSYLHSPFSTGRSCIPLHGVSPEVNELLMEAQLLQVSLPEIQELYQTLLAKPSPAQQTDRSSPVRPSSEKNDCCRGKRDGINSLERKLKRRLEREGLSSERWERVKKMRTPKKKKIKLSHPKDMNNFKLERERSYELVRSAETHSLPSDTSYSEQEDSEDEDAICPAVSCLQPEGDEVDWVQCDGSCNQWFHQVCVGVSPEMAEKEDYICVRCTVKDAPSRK

SMILES | Potency | activity change, negative = inhibition
COc1ccc(-c2cc(C(F)(F)F)nc(SCC(=O)N(C)Cc3ccccc3)n2)cc1OC | inconclusive: 35.5 µM [inhibitor, partial curve, poor fit] | 
COc1ccc([C@H]2C[C@@H](O)[C@@H](O)[C@@H]2NC(=O)c2nc3ccccc3s2)cc1 |  | inactive: 4.27% [at 86.2 µM]
NC(=O)c1ccc(N2CCN(Cc3cnc(-c4ccco4)nc3)CC2)nc1 | inconclusive: 25.1 µM [inhibitor, partial curve] | 
OCC1CN(c2ncccn2)CC12CCN(Cc1ccc3[nH]ccc3c1)CC2 (stereo unspecified) | active: 22.4 µM | 
COc1ccc2c(c1)c1c(c(=O)n(CCc3ccccc3)c(=O)n1Cc1ccccc1)n2C | inconclusive: 11.2 µM [inhibitor, partial curve, poor fit] | 
O=C(c1cc2ccccc2oc1=O)N1CCN(S(=O)(=O)c2ccc(F)cc2)CC1 |  | inactive: 11.1%
Cc1cccc(NC(=S)NC2CCCC(C)C2C)c1 (stereo unspecified) |  | inactive: -16.3%
CC1CCc2nn3ccn(CC(=O)Nc4ccc(F)cc4)c(=O)c3c2C1 (stereo unspecified) | inconclusive: 35.5 µM [inhibitor, single point] | 
COc1cc(OC)cc(C(=O)Nc2ccc3oc(-c4ccccc4C)nc3c2)c1 | inconclusive: 35.5 µM [inhibitor, partial curve, poor fit] | 
COc1cc(/C=N/OCc2cccc3ccccc23)ccc1OCc1ccc(Cl)cc1 |  | inactive: 18.7%
O=C(C[C@H]1NC(=O)c2ccccc2NC1=O)NCCn1c(=O)c(=O)[nH]c2ccccc21 | inconclusive: 25.1 µM [inhibitor, single point] | 
CCc1ccc(CNC(=O)C2CCN(c3cc(C(F)(F)F)ncn3)CC2)cc1 | active: 28.2 µM | 
CCC[C@@H]1CN(S(=O)(=O)c2ccc(OC(F)F)cc2)C[C@H]1N(C)C |  | inactive: -19%
CS(=O)(=O)N1C[C@H]2CCN(C(=O)c3cc[nH]c(=O)c3)C[C@H]21 | inconclusive: 31.6 µM [inhibitor, partial curve, poor fit] | 
O=C(c1ccc(Cl)cc1)N(Cc1ccco1)Cc1ccco1 | inconclusive: 5.62 µM [inhibitor, partial curve, poor fit] | 
C/C=C/C(=O)OC(C)C(=O)Nc1ccccc1SC (stereo unspecified) |  | inactive: 24.3%
O=[S@]1Oc2ccccc2-c2ccccc21 | inconclusive: 3.16 µM [inhibitor, full curve, poor fit] | 
O=C(CCC[C@@H]1[C@H]2CCCN3CCC[C@@H](CN1C(=O)c1ccccc1)[C@@H]23)NCCCN1CCCC1=O | inconclusive: 22.4 µM [inhibitor, single point] | 
NC(=O)COc1cccc(C(=O)N2CCC3(CC2)OCCCC3O)c1 (stereo unspecified) |  | inactive: 43.1%
COC[C@@H]1[C@H](C(=O)Nc2ccc(N3CCOCC3)cc2)CCC(=O)N1C | inconclusive: 22.4 µM [inhibitor, single point] | 
Cc1ccc2ncc(C(=O)NCCc3ccc(S(N)(=O)=O)cc3)c(=O)n2c1 | inconclusive: 31.6 µM [inhibitor, partial curve, poor fit] | 
CSCC[C@H](NC(=O)OC(C)(C)C)C(=O)N/N=C/c1cccc2nccnc12 | inconclusive: 39.8 µM [inhibitor, single point] | 
Cc1ccc2c(c1)cc(C(=O)N[C@@H](Cc1ccccc1)C(=O)O)n2C | inconclusive: 31.6 µM [inhibitor, partial curve, poor fit] | 
CCCC(C(=O)Nc1nc2ccc(F)cc2s1)c1ccccc1 (stereo unspecified) |  | inactive: 2.7%

SMILES | Potency | activity change, negative = inhibition
O=C(NC1CCN(c2nc3ncccc3o2)CC1)c1ccccc1 | active: 35.5 µM | 
Fc1ccccc1-c1cc2c(cn1)CN(Cc1cccnc1)CCN2 | active: 31.6 µM | 
Cc1oc(-c2nc(C#N)c(NCc3ccccc3)o2)cc1S(=O)(=O)N1CCCCC1 | inconclusive: 25.1 µM [inhibitor, partial curve, poor fit] | 
COc1ccc(-c2ccnc3nc(C(C)C)nn23)c(F)c1 |  | inactive: -4450%
Cn1ncc(N2CCC(C(=O)N3CCCCC3)C2)cc1=O (stereo unspecified) |  | inactive: -30.4%
O=C(O)Cn1ccc2cc(OCc3cccc(-c4ccc(F)c(Cl)c4)c3)cnc21 | active: 39.8 µM | 
CCOc1ccc(NC(=O)CSc2nc3c(c(=O)[nH]2)CCCC3)cc1 | inconclusive: 4.47 µM [inhibitor, partial curve, poor fit] | 
COC[C@H]1CCCN1C(=O)C[C@@H]1O[C@H](CNC(=O)Nc2ccccc2)[C@@H](O)[C@H]1O | inconclusive: 25.1 µM [inhibitor, partial curve] | 
Cc1nc(CC(=O)Nc2cc(Cl)ccc2C)cs1 |  | inactive: -18.9%
Cc1ccc(CN2CCCC3(COc4ccccc4C(=O)N3)C2)cc1 (stereo unspecified) | active: 35.5 µM | 
COc1ccc(Cl)cc1-c1nc(C2CC(=O)N(c3ccc(F)cc3)C2)no1 (stereo unspecified) | inconclusive: 8.91 µM [inhibitor, partial curve] | 
COc1ccc(C)cc1-n1nnnc1SCc1nc(C(C)C)no1 |  | inactive: -13.9%
CCCCCCCCCc1ccc(C(=O)O)cc1 |  | inactive: 24.5%
O=C(c1cccnc1OC1CCN(S(=O)(=O)c2cccc(F)c2)C1)N1CCOCC1 (stereo unspecified) |  | inactive: 13.3%
COc1cc(/C=C/C(=O)c2ccc(C(=O)O)s2)cc(OC)c1 |  | inactive: -29.2%
CC1(C)C2CCC1(C)C(NC(=O)Cc1ccccc1)C2 (stereo unspecified) |  | inactive: 20.2%
CCOc1ccccc1CN1CCc2nc(N3CCN(c4ccccc4F)CC3)ncc2C1 | inconclusive: 35.5 µM [inhibitor, single point] | 
Cc1cccc(C(=O)Nc2ccc(OC(=O)c3ccc4c(c3)NC(=O)CCS4)cc2)c1 |  | inactive: -10.7%
CCOc1ccccc1NC(=O)Cc1nc(-c2ccccc2)oc1C |  | inactive: -2.18%
CCCS(=O)(=O)N1CCC2(CC1)c1[nH]c3ccccc3c1CCN2C | inconclusive: 20 µM [inhibitor, partial curve] | 
CCCN(C(=O)c1cn(C)c(=O)c2ccccc12)c1ccccc1C | inconclusive: 3.16 µM [inhibitor, partial curve, poor fit] | 
O=C(Nc1ccccc1C(F)(F)F)c1nn(-c2ccc(Cl)cc2)ccc1=O |  | inactive: -9.75%
CCOc1ccc(OC(=O)c2ccc3c(c2)NC(=O)CS3)cc1 |  | inactive: -1.49%
C=CCNC(=O)NC(=O)CN1CCN(c2oc(-c3ccco3)nc2C#N)CC1 | inconclusive: 25.1 µM [inhibitor, partial curve, poor fit] | 

SMILES | Potency | activity change, negative = inhibition
COc1cccn(CC(=O)N2CCN(c3ccccc3C#N)CC2)c1=O | inconclusive: 28.2 µM [inhibitor, partial curve, poor fit] | 
O=C(c1cn2ccsc2n1)N1CC[C@H](CO)[C@@H](O)C1 |  | inactive: -2.69%
COc1ccc(CCNC(=O)c2cc(C)nc3c2c(C)nn3-c2ccc(C)cc2)cc1OC | inconclusive: 22.4 µM [inhibitor, partial curve, poor fit] | 
CCOC(=O)C1=C(C)N=c2s/c(=C/c3ccc(OCC(=O)O)c(OC)c3)c(=O)n2C1c1ccc(Cl)cc1 (stereo unspecified) | inconclusive: 14.1 µM [inhibitor, partial curve, poor fit] | 
Cc1c(F)cccc1NC(=O)Nc1cccc(-c2ccc(N3CCOCC3)nn2)c1 |  | inactive: 9.38%
O=C([C@@H]1C[C@@H](c2ccc(F)cc2)N(Cc2ccccc2)C1)N1CCN(c2ccccn2)CC1 | inconclusive: 31.6 µM [inhibitor, partial curve, poor fit] | 
Cc1cc(-c2ccccc2)c2c(n1)sc1c(O)cc(=O)[nH]c12 | inconclusive: 28.2 µM [inhibitor, partial curve, poor fit] | 
Cc1c(Cl)cccc1NC(=O)N1CCSc2ncccc21 | inconclusive: 22.4 µM [inhibitor, partial curve, poor fit] | 
O=C(c1ccccc1Br)N1CCC(CN2CCOCC2)CC1 |  | inactive: 16.2%
Cc1nc(-c2cc3ccc(OCC(=O)NCCO)cc3oc2=O)cs1 |  | inactive: -2180%
COc1cc(NC(=O)CN2C(=O)COc3cc(C(C)(C)C)ccc32)cc(OC)c1 |  | inactive: 16.6%
O=C(NCCc1ccc(Cl)cc1)c1nc(-c2cccc(F)c2)c2cnccn12 | active: 28.2 µM | 
Cn1cc(CN2CCN3CCCC3C2)c(-c2ccc(C3CCCCC3)cc2)n1 (stereo unspecified) | inconclusive: 3.55 µM [inhibitor, partial curve, poor fit] | 
COc1cc(-c2nc(-c3c(C)noc3C)cc3c2cc(C)n3CCN(C)C)ccn1 | active: 31.6 µM | 
CCCC1c2nccn2CCCN1C(=O)c1cocn1 (stereo unspecified) |  | inactive: 13.3%
Clc1cc(Cl)c(N/N=C/C(Br)=C/c2ccccc2)c(Cl)c1 | inconclusive: 39.8 µM [inhibitor, single point] | 
COc1ccc(C(=O)N[C@H]2CO[C@H]3[C@@H]2OC[C@@H]3Nc2nccc(-c3ccccc3OC)n2)cc1 | inconclusive: 15.8 µM [inhibitor, partial curve] | 
COc1ccc(-c2noc(-c3nc(Cc4ccc(F)cc4)no3)n2)cc1 | inconclusive: 28.2 µM [inhibitor, single point] | 
O=C1Nc2ccccc2CC12CCCN2CC1CCOCC1 (stereo unspecified) | inconclusive: 63.1 µM [inhibitor, partial curve, poor fit] | 
O=C1[C@@H]2C[C@@H](CN2C2COC2)Oc2ccccc2N1Cc1ccccn1 | inconclusive: 17.8 µM [inhibitor, partial curve] | 
CC(C)c1noc(C(C)Sc2n[nH]c(-c3ccccc3F)n2)n1 (stereo unspecified) |  | inactive: 2.76%
COc1cc(C2CC(=O)c3c([nH]c(C(=O)OCC4CCCCC4)c3C)C2)cc(OC)c1OC (stereo unspecified) | inconclusive: 31.6 µM [inhibitor, single point] | 
COc1cc(CN2CCCC(c3[nH]ccc3C(N)=O)C2)ccc1F (stereo unspecified) | inconclusive: 89.1 µM [inhibitor, partial curve, poor fit] | 
